Data: article PMC4471680
Results are given in words; binding and its absence hold for the method and conditions named. For part of these data: Binding seen in cells or lysates may run through a third protein. Some entries that bind do so weakly or less than the wild type.

Chains of the proteins cited; added tags and fusions are not shown. Residues count along the entry.
UniProt P08246, residues 30-267: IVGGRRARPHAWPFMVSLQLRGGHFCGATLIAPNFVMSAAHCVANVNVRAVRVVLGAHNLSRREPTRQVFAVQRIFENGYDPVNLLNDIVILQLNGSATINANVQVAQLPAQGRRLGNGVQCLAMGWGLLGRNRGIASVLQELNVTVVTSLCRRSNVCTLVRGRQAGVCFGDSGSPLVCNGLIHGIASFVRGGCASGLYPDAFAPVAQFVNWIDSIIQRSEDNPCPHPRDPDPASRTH

B1: cathepsin G (enzyme, UniProt P08311 21-244)
chain: IIGGRESRPHSRPYMAYLQIQSPAGQSRCGGFLVREDFVLTAAHCWGSNINVTLGAHNIQRRENTQQHITARRAIRHPQYNQRTIQNDIMLLQLSRRVRRNRNVNPVALPRAQEGLRPGTLCTVAGWGRVSMRRGTDTLREVQLRVQRDRQCLRIFGSYDPRRQICVGDRRERKAAFKGDSGGPLLCNNVAHGIVSYGKSSGVPPEVFTRVSSFLPWIRTTMRS
B2: azurocidin (protein, UniProt P20160 27-251)
chain: IVGGRKARPRQFPFLASIQNQGRHFCGGALIHARFVMTAASCFQSQNPGVSTVVLGAYDLRRRERQSRQTFSISSMSENGYDPQQNLNDLMLLQLDREANLTSSVTILPLPLQNATVEAGTRCQVAGWGSQRSGGRLSRFPRFVNVTVTPEDQCRPNNVCTGVLTRRGGICNGDGGTPLVCEGLAHGVASFSLGPCGRGPDFFTRVALFRDWIDGVLNNPGPGPA
B3: lysozyme (enzyme, UniProt P61626 19-148)
chain: KVFERCELARTLKRLGMDGYRGISLANWMCLAKWESGYNTRATNYNAGDRSTDYGIFQINSRYWCNDGKTPGAVNACHLSCSALLQDNIADAVACAKRVVRDPQGIRAWVAWRNRCQNRDVRQYVQGCGV
B4: proteinase 3 (enzyme, UniProt P24158 28-248)
chain: IVGGHEAQPHSRPYMASLQMRGNPGSHFCGGTLIHPSFVLTAAHCLRDIPQRLVNVVLGAHNVRTQEPTQQHFSVAQVFLNNYDAENKLNDVLLIQLSSPANLSASVATVQLPQQDQPVPHGTQCLAMGWGRVGAHDPPAQVLQELNVTVVTFFCRPHNICTFVPRRKAGICFGDSGGPLICDGIIQGIDSFVIWGCATRLFPDFFTRVALYVDWIRSTLR
B5: eosinophil cationic protein (protein, UniProt P12724 28-160)
chain: RPPQFTRAQWFAIQHISLNPPRCTIAMRAINNYRWRCKNQNTFLRTTFANVVNVCGNQSIRCPHNRTLNNCHRSRFRVPLLHCDLINPGAQNISNCTYADRPGRRFYVVACDNRDPRDSPRYPVVPVHLDTTI
B6: bactericidal/permeability-increasing protein (protein, UniProt P17213 32-487)
chain: VNPGVVVRISQKGLDYASQQGTAALQKELKRIKIPDYSDSFKIKHLGKGHYSFYSMDIREFQLPSSQISMVPNVGLKFSISNANIKISGKWKAQKRFLKMSGNFDLSIEGMSISADLKLGSNPTSGKPTITCSSCSSHINSVHVHISKSKVGWLIQLFHKKIESALRNKMNSQVCEKVTNSVSSELQPYFQTLPVMTKIDSVAGINYGLVAPPATTAETLDVQMKGEFYSENHHNPPPFAPPVMEFPAAHDRMVYLGLSDYFFNTAGLVYQEAGVLKMTLRDDMIPKESKFRLTTKFFGTFLPEVAKKFPNMKIQIHVSASTPPHLSVQPTGLTFYPAVDVQAFAVLPNSSLASLFLIGMHTTGSMEVSAESNRLVGELKLDRLLLELKHSNIGPFPVELLQDIMNYIVPILVLPRVNEKLQKGFPLPTPARVQLYNVVLQPHQNFLLFGADVVYK

Target: neutrophil elastase (human (endogenous in neutrophils)) (UniProt P08246)
Test: co-IP; as a1, but intact azurophilic granules treated with 100 μM H2O2 for 2 hr at 37°C before solubilization (also with protease inhibitors or ABAH); anti-NE antibody; immunoblotting against MPO, CG, AZU, LYZ

binding | Binder
binds | B1
binds | B2

Target: neutrophil elastase (human (endogenous in neutrophils)) (UniProt P08246)
Test: condition: only granules treated with 100 μM H2O2 before solubilization; co-IP; as a1, but intact azurophilic granules treated with 100 μM H2O2 for 2 hr at 37°C before solubilization (also with protease inhibitors or ABAH); anti-NE antibody; immunoblotting against MPO, CG, AZU, LYZ

binding | Binder
no binding | B3

Target: neutrophil elastase (human (endogenous in neutrophils)) (UniProt P08246)
Test: co-IP; cytoplasmic lysate (LSS) of control human neutrophils activated with PMA for 60 min; anti-NE antibody; immunoblotting against CG, AZU, MPO

binding | Binder
binds | B1
binds | B2

Target: neutrophil elastase (human (endogenous in neutrophils)) (UniProt P08246)
Test: SEC; unactivated azurophilic granules permeabilized with 0.1% NP-40, Superdex 200 GL, 20 mM HEPES pH 7.4, 100 mM NaCl, 0.5 U/ml heparin; fractions probed for NE and MPO; proteins of the complex detected by mass spectrometry

binding | Binder
binds | B4
binds | B1
binds | B2
binds | B3
binds | B5

Target: neutrophil elastase (human (endogenous in neutrophils)) (UniProt P08246)
Test: co-IP; azurophilic granules of control human neutrophils, untreated (also with HOCl), solubilized with 0.1% NP-40; rabbit anti-NE antibody or mock antibody (anti-MMP9, anti-BPI), Protein-G resin, 4°C; washes with GPB and GPB + 0.5 U/ml heparin; Coomassie staining or immunoblotting

binding | Binder
no binding | B6
binds | B1
binds | B2
binds | B3
binds | B5
